“And” between values parts separate entries of the source, which are not always exact repeats. Identical values can stand only once.

Holding throughout (assay): Enzymatic IC50 assay, HCV NS3 serine protease domain
Experiment [1] concerns the target HCV NS3 protease V36M, R155T double mutant (Hepatitis C virus genotype 1a, UniProt P27958, R1181T/V1062M).
Experiment [2] addresses HCV NS3 protease V36M, R155K double mutant (Hepatitis C virus genotype 1a, UniProt P27958, R1181K/V1062M).
Experiment [3] has as its target HCV NS3 protease V36M mutant (Hepatitis C virus genotype 1a, UniProt P27958, V1062M).

Broadly, the IC50 is the midpoint of a concentration-inhibition curve. For the molecule `COc1ccc2c(O[C@@H]3C[C@H]4C(=O)N[C@]5(C(=O)O)C[C@H]5/C=C\CCCCC[C@H](NC(=O)OC5CCCC5)C(=O)N4C3)cc(-c3csc(NC(C)C)n3)nc2c1` [BILN 2061], the IC50 in experiment [1] is 729 nM; in experiment [2] (IC50, V36M, R155K protease, each line a patient-specific clone), above 840 nM; in experiment [3] (IC50, V36M protease, each line a patient-specific clone), 2 nM and 2.3 nM. The Fold change was above 183 fold in experiment [2] (V36M, R155K, enzyme IC50 vs genotype 1a HCV-H reference strain) and 0.5 fold in experiment [3] (V36M, enzyme IC50 vs genotype 1a HCV-H reference strain).

These data come from patent publication US8501450B2, “Hepatitis C virus variants” (priority 2005, dated 2013).
